Data from paper PMC4336329 (PLoS ONE, 2015).
In all, about 310,000 compounds went through this assay and about 2,200 (0.71%) showed an effect of 50% or more. Effects have a minus sign here. Some of the results follow.

Target: human ether-à-go-go-related gene (hERG) potassium channel (human, UniProt Q12809)
Assay: primary screen, population patch clamp on CHO cells stably expressing hERG

human ether-à-go-go-related gene (hERG) potassium channel, sequence (Q12809 whole entry, looked up): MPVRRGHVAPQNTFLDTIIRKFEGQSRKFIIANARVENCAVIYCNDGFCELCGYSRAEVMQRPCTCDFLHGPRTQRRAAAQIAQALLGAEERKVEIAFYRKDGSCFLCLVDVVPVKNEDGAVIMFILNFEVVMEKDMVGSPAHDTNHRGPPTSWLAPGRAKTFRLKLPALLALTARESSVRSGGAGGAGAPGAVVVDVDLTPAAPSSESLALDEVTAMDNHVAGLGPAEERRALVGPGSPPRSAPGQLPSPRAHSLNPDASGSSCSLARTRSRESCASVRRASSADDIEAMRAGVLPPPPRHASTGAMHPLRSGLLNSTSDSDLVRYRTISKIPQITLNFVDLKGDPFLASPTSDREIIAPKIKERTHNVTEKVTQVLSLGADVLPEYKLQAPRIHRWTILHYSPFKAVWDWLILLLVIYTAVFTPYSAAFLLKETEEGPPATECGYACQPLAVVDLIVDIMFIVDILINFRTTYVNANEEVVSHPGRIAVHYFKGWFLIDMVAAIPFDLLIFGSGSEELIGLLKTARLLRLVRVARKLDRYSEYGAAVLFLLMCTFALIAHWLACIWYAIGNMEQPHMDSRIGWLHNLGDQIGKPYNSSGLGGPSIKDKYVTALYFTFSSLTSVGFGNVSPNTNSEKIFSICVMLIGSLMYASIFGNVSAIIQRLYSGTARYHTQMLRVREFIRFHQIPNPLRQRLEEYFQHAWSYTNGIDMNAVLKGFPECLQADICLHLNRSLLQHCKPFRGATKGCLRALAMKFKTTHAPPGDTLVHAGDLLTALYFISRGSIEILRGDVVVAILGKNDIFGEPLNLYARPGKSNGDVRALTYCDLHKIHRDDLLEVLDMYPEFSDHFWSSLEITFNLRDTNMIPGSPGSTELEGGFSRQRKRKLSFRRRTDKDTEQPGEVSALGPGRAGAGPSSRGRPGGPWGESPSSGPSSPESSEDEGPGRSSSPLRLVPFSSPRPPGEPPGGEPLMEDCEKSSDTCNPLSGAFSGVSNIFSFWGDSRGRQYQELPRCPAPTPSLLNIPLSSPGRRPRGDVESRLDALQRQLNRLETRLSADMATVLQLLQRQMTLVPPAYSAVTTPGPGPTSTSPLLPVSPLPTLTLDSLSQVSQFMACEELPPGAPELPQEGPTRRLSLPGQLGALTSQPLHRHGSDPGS

| Structure (SMILES) | hERG current change (%, negative = inhibition) at 1uM |
| --- | --- |
| COC(=O)[C@]1(CC(C)C)N[C@H](c2ccc(-c3ccc(F)cc3)cc2)[C@@H]2C(=O)N(C)C(=O)[C@@H]21.O=C(O)C(F)(F)F | -2.78% |
| CCN(CC(=O)NCc1cccs1)C(=O)c1ccc([N+](=O)[O-])o1 | -9.13% |
| CCOc1ccccc1N(C(=O)c1snc(C(N)=O)c1N)C(C(=O)NCC1CCCO1)c1ccc2ncccc2c1 (stereo not shown) | 19.7% |
| COc1ccc(C(=O)NCc2cccnc2)cc1OC | 14.4% |
| Cc1ccc(CNC(=O)C(NS(=O)(=O)c2cccs2)C(C)C)cc1 (stereo not shown) | 14% |
| O=C(COC(=O)CCS(=O)(=O)c1ccccc1)Nc1cc(S(=O)(=O)N2CCCCC2)ccc1Cl | 5.08% |
| NC(=O)c1ccsc1NC(=O)c1nc(-c2ccccc2)n(-c2ccccc2)n1 | 7.07% |
| COc1ccc([C@@H]2CC=C(C(=O)O)[C@H](c3ccc(F)cc3)N2S(=O)(=O)c2ccc(C)cc2)cc1OC | 5.13% |
| CC(C)CN(CC(C)C)C(=S)NC1CCCCC1 | 10.9% |
| Cc1cc(C)cc(Oc2nn[nH]n2)c1 | 21% |
| COC(=O)C1CCN(S(=O)(=O)c2ccc(NC(C)=O)cc2)CC1 | 6.55% |
| CC(=O)c1c(C)[nH]c(=S)c(C#N)c1-c1ccc(F)cc1 | 15.4% |
| CCC(C)Nc1nc(N)c([N+](=O)[O-])c(NC2CCCCC2)n1 (stereo not shown) | 25.2% |
| CCC(C)[C@H]1CNC(=O)C(=O)N1CCCc1cc(OC)c(OC)c(OC)c1 (stereo partly shown) | 13.6% |
| Cc1ccc(S(=O)(=O)c2c(N)n(C)c3nc4ccccc4nc23)cc1 | 7.64% |
| O=C(CCCN1C(=O)/C(=C\c2ccco2)SC1=S)Nc1ccc2ccccc2c1 | 3.5% |
| Fc1cccc(Cl)c1/C=C/c1cnc2ccccc2n1 | 13.6% |
| COc1ccccc1NC(=O)NNC(=O)CCN1CCOCC1 | 8.19% |
| Cc1noc(C)c1COc1cccc(C(=O)OCC(=O)N2CC(=O)Nc3ccccc32)c1 | 10.6% |
| CC1CC(C)CN(CC(=O)Nc2cc(S(=O)(=O)N3CCOCC3)ccc2N2CCCC2)C1 (stereo not shown) | 9.71% |
| CN(C)c1ccc(/C=N/NC(=O)c2ccc(NC(=O)c3ccccc3)cc2)cc1 | 6.02% |
| O=C(c1ccc(Cl)c(S(=O)(=O)N2CCCC2)c1)N1CCOCC1 | -21.1% |
| CC1(C)Cc2ccccc2-c2nnc(-c3ccco3)n21 | 8.41% |
| COC1(OC)C(=N/O)/C(=N\O)CCC1O (stereo not shown) | 2.15% |
| CCCOc1ccc2c(=O)c(-c3cc(C(=O)OC)oc3C)c(C)oc2c1 | 5.56% |
| O=C(CN(CC1CCCO1)C(=O)CCC(=O)Nc1ccccn1)NCc1ccccc1 (stereo not shown) | 6.91% |
| Cl.Nc1ccc(N2CCCCCC2)cc1 | -2.52% |
| COc1cc(NC(=O)CN2C(=O)NC(C)(c3ccc4ccccc4c3)C2=O)c(C)cc1[N+](=O)[O-] (stereo not shown) | 18.1% |

| Structure (SMILES) | hERG current change (%, negative = inhibition) at 1uM |
| --- | --- |
| O=C(CC1S/C(=N/N=C2CCCCCC2)NC1=O)Nc1ccccc1C(F)(F)F (stereo not shown) | 10.8% |
| O=C(CCN1C(=O)/C(=C/c2cccs2)SC1=S)Nc1ccc(O)cc1 | 6.71% |
| COc1ccccc1CCC(=O)Nc1cccc(S(=O)(=O)N2CCCCCC2)c1 | 14.1% |
| CCCCCc1nc2c(=O)n(C)c3ccccc3c2o1 | -2.04% |
| CCC(CC)C(=O)Nc1ccc([N+](=O)[O-])cn1 | 12.5% |
| COC(=O)c1ccccc1NC(=S)N1CCOCC1 | 15.4% |
| NC(=O)CSc1nnc(-c2ccc3c(c2)OCO3)o1 | 14% |
| CCOC(=O)C1=C(c2ccccc2)NC(SCC(=O)Nc2ccc(C)cc2)=C(C#N)C1c1ccco1 (stereo not shown) | -8.66% |
| CCOC(=O)N1CCC(N2Cc3cccc(C(=O)Nc4cccc(F)c4)c3C2=O)CC1 | -36.5% |
| CCCN(CC(=O)Nc1ccc(C)cc1Br)CC(=O)Nc1ccc(F)c(F)c1F | 4.73% |
| Cc1nnc(-c2cnn(-c3ccccc3)c2N)n1Cc1ccccc1 | -4.57% |
| COc1ccc(NC(=O)C(c2ccccc2)N(C)C(=O)CNC(C)=O)cc1 (stereo not shown) | 29% |
| CN(C)CCCN(C(=O)c1ccc(S(=O)(=O)N(C)Cc2ccccc2)cc1)c1nc2c(F)cccc2s1.Cl | -12% |
| O=C1c2ccccc2C(O)(c2ccccc2)N1C1CC1 (stereo not shown) | -8.45% |
| COc1cccc(/C=C2/SC(=S)N(CCCC(=O)Nc3ccc(O)cc3)C2=O)c1 | 13.5% |
| O=C(NNS(=O)(=O)c1ccccc1[N+](=O)[O-])c1ccc(F)cc1 | 10.4% |
| O=C(C[n+]1ccccc1)Nc1ccccc1C(F)(F)F.[Cl-] | 15.7% |
| Cn1cc(C(=O)C(=O)N2CCc3ccccc32)c2ccccc21 | 17.4% |
| CCOC(=O)c1sc2nc(C)nc(N3CCCCC3C)c2c1C (stereo not shown) | -5.1% |
| Cc1ccc(S(=O)(=O)N2CCOCC2)cc1C(=O)NC1CCCC1 | 16.7% |
| CSc1ccc(/C=C/C(=O)c2ccc(NC(C)=O)cc2)cc1 | 5.65% |
| Cc1ccc2nc(NCCCO)[nH]c2c1 | 15% |
| c1ccc(-c2nnsc2-c2ccccc2)cc1 | 13.7% |
| Oc1c(CN2CCCCC2)cc(Br)c2cccnc12 | 10.4% |
| Cc1cc(C)nc(NC(=NCCc2c[nH]c3ccccc23)NC(=O)Nc2ccc(Cl)cc2)n1 | 9.67% |
| S=c1[nH]nc(Cc2cccs2)n1-c1cccc2ccccc12 | 5.83% |
| CNC[C@@H](C)NC[C@@H](Cc1ccccc1)NCCc1ccccc1 | 0.0148% |
